Measured values published in patent EP4671280A1 (Nanjing Leads Biolabs Co., Ltd., dated 2025).

Key:
Experiment in all cases: BLI (ForteBio Octet RED96e), antibody captured on AHC sensor, antigen in solution, 1:1 model
[1] = target: T1, human Nectin-4-his protein (ACRO Biosystems, Cat. No. NE4-H52H3) (human, UniProt Q96NY8 32-349)
T1 construct: Bought protein; also called human Nectin-4 protein; not shown: his tag
T1 sequence (looked up): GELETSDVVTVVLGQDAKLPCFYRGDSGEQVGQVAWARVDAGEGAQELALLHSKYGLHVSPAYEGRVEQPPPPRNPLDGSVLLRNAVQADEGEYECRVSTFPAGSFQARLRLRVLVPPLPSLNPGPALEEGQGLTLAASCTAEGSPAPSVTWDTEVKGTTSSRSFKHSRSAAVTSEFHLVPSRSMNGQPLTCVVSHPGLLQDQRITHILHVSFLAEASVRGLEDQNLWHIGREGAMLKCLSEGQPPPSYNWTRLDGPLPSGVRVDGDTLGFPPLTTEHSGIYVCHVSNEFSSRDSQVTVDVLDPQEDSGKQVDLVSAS

[2] = target: human 4-1BB protein (Sino Biological, Cat. No. 10041-H08H) (human, UniProt Q07011 24-186)
[3] = target: T2, cynomolgus monkey Nectin-4 protein (KACTUS, Cat. No. NEC-CM104) (cynomolgus monkey, UniProt A0A2K5WES1 32-349)
T2 construct: Bought protein
T2 sequence: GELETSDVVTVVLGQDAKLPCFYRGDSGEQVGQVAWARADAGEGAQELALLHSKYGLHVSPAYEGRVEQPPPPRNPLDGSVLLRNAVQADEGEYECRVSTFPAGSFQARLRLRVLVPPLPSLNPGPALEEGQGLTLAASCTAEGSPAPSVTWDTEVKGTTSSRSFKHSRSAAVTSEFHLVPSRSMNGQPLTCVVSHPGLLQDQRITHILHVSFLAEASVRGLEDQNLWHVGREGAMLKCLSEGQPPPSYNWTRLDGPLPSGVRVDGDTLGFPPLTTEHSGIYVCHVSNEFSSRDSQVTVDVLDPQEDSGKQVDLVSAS

- Kd [1]: 0.296 nM
- koff [1]: 9.29e-05 s⁻¹
- kon [1]: 314000 M⁻¹ s⁻¹
- Kd [2]: 57.1 nM
- koff [2]: 0.00568 s⁻¹
- kon [2]: 99600 M⁻¹ s⁻¹
- Kd [3]: 5.88 nM
- koff [3]: 0.0018 s⁻¹
- kon [3]: 307000 M⁻¹ s⁻¹
B1: huH4F3-5-41BB bispecific antibody (bispecific antibody, human IgG1, kappa, L234A L235A)
heavy: QVQLVQSGAEVKKPGASVKVSCKASGYTFTSYYIHWVRQAPGQRLEWMGWIYPGNVNTKYSQKFQGRVTLTRDKSASTAYMELSSLRSEDTAVYYCARGVYYFDFWGQGTLVTVSSASTKGPSVFPLAPSSKSTSGGTAALGCLVKDYFPEPVTVSWNSGALTSGVHTFPAVLQSSGLYSLSSVVTVPSSSLGTQTYICNVNHKPSNTKVDKKV[human IgG1 Fc with L234A L235A D265A P329A (EU numbers) not spelt out]AGGGGSGGGGSGGGGSQVQLQESGGGLVQPGGSLRLSCAVSGFTFSSYAMHWVRQAPGKCLEWVAVISYDGSKKWYADSVKGRFTISRDNSKNTLYLQMNSLRAEDTAVYYCARNQGSGSYLYYYYMDVWGKGTTVTVSSGGGGSGGGGSGGGGSQSALTQPRSVSGSPGQSVTISCTGTSSDVGGYNYVSWYQQLPGKAPKVIIYEVSNRPSGVSNRFSGSKSGNTASLTISGVQSEDEADYYCSSYTSSSTFYVFGCGTQLTVL
light: DIVMTQSPDSLAVSLGERATINCKSSQSVSNDVAWYQQKPGQPPKLLIYYALNRESGVPDRFSGSGSGTDFTLTISSLQAEDVAVYYCQQDYSSPYTFGQGTKLEIKRTVAAPSVFIFPPSDEQLKSGTASVVCLLNNFYPREAKVQWKVDNALQSGNSQESVTEQDSKDSTYSLSSTLTLSKADYEKHKVYACEVTHQGLSSPVTKSFNRGEC
notes: also called humanized anti-Nectin-4×4-1BB bispecific antibody
